Screen size: about 310,000 compounds; about 14,000 (4.5%) showed an effect of 50% or more. The effect is printed as a negative number. Some of the results follow.
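Note: peak tail current of the secondary pulse compared with the same well before compound.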

In this assay the target is human ether-à-go-go-related gene (hERG) potassium channel (human, UniProt Q12809). Put plainly: primary screen, population patch clamp on CHO cells stably expressing hERG.
human ether-à-go-go-related gene (hERG) potassium channel, sequence (Q12809 whole entry, looked up): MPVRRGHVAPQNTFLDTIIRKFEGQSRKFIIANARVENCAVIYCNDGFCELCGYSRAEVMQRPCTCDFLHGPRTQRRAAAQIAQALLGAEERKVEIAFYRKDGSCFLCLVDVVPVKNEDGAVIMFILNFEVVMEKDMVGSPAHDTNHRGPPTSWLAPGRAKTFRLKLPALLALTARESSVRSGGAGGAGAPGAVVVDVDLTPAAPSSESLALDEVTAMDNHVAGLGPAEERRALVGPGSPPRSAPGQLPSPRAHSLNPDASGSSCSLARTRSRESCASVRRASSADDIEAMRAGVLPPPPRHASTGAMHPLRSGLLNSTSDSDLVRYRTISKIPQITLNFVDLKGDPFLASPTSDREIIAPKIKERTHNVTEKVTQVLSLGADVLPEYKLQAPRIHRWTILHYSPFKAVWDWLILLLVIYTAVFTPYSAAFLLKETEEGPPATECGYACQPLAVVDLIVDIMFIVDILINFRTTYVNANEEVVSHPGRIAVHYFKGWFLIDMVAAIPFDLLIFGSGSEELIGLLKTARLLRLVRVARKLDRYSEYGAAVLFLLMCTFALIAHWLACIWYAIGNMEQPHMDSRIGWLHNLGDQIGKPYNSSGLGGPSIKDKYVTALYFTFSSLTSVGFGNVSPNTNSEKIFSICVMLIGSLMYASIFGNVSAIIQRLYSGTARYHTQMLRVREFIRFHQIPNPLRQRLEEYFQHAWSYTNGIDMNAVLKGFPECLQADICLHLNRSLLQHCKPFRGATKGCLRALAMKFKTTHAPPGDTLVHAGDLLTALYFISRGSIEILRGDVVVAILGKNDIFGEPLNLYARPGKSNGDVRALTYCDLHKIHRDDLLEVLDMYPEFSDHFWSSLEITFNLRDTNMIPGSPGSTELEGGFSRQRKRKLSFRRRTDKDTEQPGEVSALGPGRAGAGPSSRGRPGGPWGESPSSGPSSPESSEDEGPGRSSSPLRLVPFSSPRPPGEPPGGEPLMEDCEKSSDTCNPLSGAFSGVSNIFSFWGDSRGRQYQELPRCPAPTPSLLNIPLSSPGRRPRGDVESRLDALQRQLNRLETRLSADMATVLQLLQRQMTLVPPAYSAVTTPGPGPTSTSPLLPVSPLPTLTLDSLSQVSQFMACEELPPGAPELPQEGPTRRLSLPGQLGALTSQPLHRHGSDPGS
Regarding `COCCC(=O)N1CCC(Oc2ccc(C(=O)N3CCCC(OC)C3)cc2)CC1` (centres unmarked), the “hERG current change (%, negative = inhibition) at 10uM” value turned out to be 9.12%. Next, `O=C1NC(=O)N(CCNc2ncc(C(F)(F)F)cc2Cl)C(=O)C1Cc1ccc(Cl)cc1` (centres unmarked): 13.7%; `COc1ccc(NC(C)=O)cc1CNC(=O)COc1c(C)c(C)cc(C)c1C`: 4.48%; `CCN1CCN(C(=O)c2cc3cc4cc(OC)ccc4nc3s2)CC1`: -20.8%. Next, `Cc1ccc(S(=O)(=O)N2CCC(C(=O)Nc3ccc(C(C)C)cc3)CC2)cc1`: -11.5%.

As to `O=C(NCC(=O)N1CCN(c2ccccc2)CC1)c1cccs1`, the “hERG current change (%, negative = inhibition) at 10uM” value is reported as 3.44%. Consider `O=C(O)C1C2CCC(O2)C1C(=O)Nc1cccc(Br)c1` (centres unmarked), for which the “hERG current change (%, negative = inhibition) at 10uM” value came to 24.4%. In the case of `COc1ccc(CN2CC(C(=O)NCc3ccc4c(c3)OCO4)CC2=O)cc1` (centres unmarked), the “hERG current change (%, negative = inhibition) at 10uM” value is -44.8%. The result for `COc1ccc2nc3cc(Cl)ccc3c(Nc3cc(CN4CCCC4)c(O)c(CN4CCCC4)c3)c2n1.O=P(O)(O)O` reads -48%. For `CC1(C)C(=O)Nc2ccccc2N1C(=O)COC(=O)c1cc(S(=O)(=O)N2CCOCC2)ccc1F`, the “hERG current change (%, negative = inhibition) at 10uM” value was 23.3%. The result for `O=C(Nc1ccccc1)c1ccc(-c2ccc(F)cc2)s1` reads -5.33%; that for `O=C(c1ccc(-c2ccccc2)cc1)C1CCCN(Cc2ccncc2)C1` (centres unmarked), -62.6%. Next, `O=C(/C=C/c1ccc([N+](=O)[O-])cc1)N1CCN(S(=O)(=O)c2ccccc2)CC1`: -34.1%; `CCCCCCCCC(=O)O`: 16%; `Cc1ccc(OCCn2c(C)nc3ccccc32)cc1`: 3.94%. Next, `CCOc1cc(/C=N\NC(=O)OC(C)(C)C)ccc1OC(=O)c1ccco1`: 14.8%; `O=C(NC1CCCC1)C(c1ccco1)N(Cc1ccccc1)C(=O)c1csnn1` (centres unmarked): -19.6%; `O=C(Cc1ccccc1)NNS(=O)(=O)c1ccc([N+](=O)[O-])cc1`: 14.2%. As to `Cc1ccc(Cl)cc1NS(=O)(=O)c1c(C)[nH]c(=O)[nH]c1=O`, the “hERG current change (%, negative = inhibition) at 10uM” value is -2.22%. Next, `COC(=O)c1cccc(NC(=O)c2cccc(N3C(=O)CCC3=O)c2)c1`: -4.33%.

As for `Cc1onc(-c2ccccc2)c1CNS(=O)(=O)c1ccccc1`, the “hERG current change (%, negative = inhibition) at 10uM” value is on record as -3.92%. Turning to `COc1cc(C(=O)NC(=S)Nc2ccc(Cl)c(C(=O)O)c2)cc(OC)c1OC`, the “hERG current change (%, negative = inhibition) at 10uM” value stood at 5.11%. `COc1cccc(CNC23CC4CC(CC(C4)C2)C3)c1OCc1ccccc1.Cl`: the “hERG current change (%, negative = inhibition) at 10uM” value is reported as -50%. The result for `CC(C)Cn1c(SCC(=O)Nc2ncccn2)nc2ccccc21` reads -2.51%. For the compound `Cc1ccc(S(=O)(=O)N2CCOC2CNC(=O)C(=O)NCC(C)C)cc1` (centres unmarked), the “hERG current change (%, negative = inhibition) at 10uM” value is -14%. Next, `CCCNNC(=O)C(O)(c1ccccc1)c1ccccc1`: 19.7%; `N#Cc1ccccc1S(=O)(=O)N1CCN(C(=O)[C@@H]2CCCN2C(=O)c2cccs2)CC1`: -5.03%; `Cc1cccc(NC(=O)Cn2cc([N+](=O)[O-])cn2)n1`: 9.91%. Next, `O=C(NCCN1C(=O)S/C(=C\c2ccc(Cl)c([N+](=O)[O-])c2)C1=O)C1=COCCO1`: -10.2%; `COC(=O)C1=CN(Cc2ccc(OC)cc2)C=C(C(=O)OC)C1c1cccs1`: 2.23%; `Cc1c(C(=O)N2CCN(c3ccccc3F)CC2)sc2nc(-c3ccccc3)cn12`: -14.1%. The result for `COc1ccc(/C=C/C(=O)NC(=S)NNC(=O)Cc2cccs2)cc1OC` reads 17.9%; that for `Cc1cc(OCC(=O)NCCc2c[nH]c3ccccc23)c2c(C)c(C)c(=O)oc2c1`, 3.37%; that for `COC(=O)c1cnn2c(C(F)(F)F)cc(-c3ccccc3)nc12`, -3.12%. Regarding `O=C(C1CC(=O)N(c2ccccc2)C1)N1CCN(c2ccc(F)cc2)CC1` (centres unmarked), the “hERG current change (%, negative = inhibition) at 10uM” value is -56.7%. The result for `COc1cccc(C(=O)NCCS(=O)(=O)N2CCc3ccccc3C2)c1` reads -16.2%; that for `C=CCSc1nc(N)c2c3c(sc2n1)CN(C)CC3`, -28.6%; that for `COc1cccc2c(=O)c3ccccc3oc12`, 6.18%.

For the compound `CN1C(=O)C(C)(C)c2cc(S(=O)(=O)NCc3ccc(C(=O)NCc4ccco4)cc3)ccc21`, the “hERG current change (%, negative = inhibition) at 10uM” value is on record as -4.43%.

Consider `COc1cccc(CN2CCNCC2)c1OC`, for which the “hERG current change (%, negative = inhibition) at 10uM” value is 9.21%.

On to `O=C(CN1CCN(Cc2ccccc2)CC1)Nc1ccc(N2CCOCC2)cc1`, for which the “hERG current change (%, negative = inhibition) at 10uM” value is given as -3.67%. The result for `O=C(NNc1nc(-c2ccc(F)cc2)cs1)c1ccccc1` reads 4.96%. Next, `Cc1c(OCC(N)=O)ccc2c(-c3ccccc3)cc(=O)oc12`: 5.53%; `CCCOc1ccc(-c2nnc(-c3ccncc3)o2)cc1`: -2.27%; `O=C(NNC(=O)c1cccnc1)Nc1cccc2ccccc12`: 13.4%. In the case of `Cc1cnc(C(=O)Nc2ccc(N3CCOCC3)cc2)cn1`, the “hERG current change (%, negative = inhibition) at 10uM” value is listed as 9.4%.

As for `COc1cc(CNC2CCCC2)cc(Br)c1OCC(=O)Nc1ccccc1C`, the “hERG current change (%, negative = inhibition) at 10uM” value was -1.01%.

As for `CCCS(=O)(=O)N1CCC(C(=O)N2CCC(Cc3ccccc3)CC2)CC1`, the “hERG current change (%, negative = inhibition) at 10uM” value is listed as -63%.

Consider `COc1ccccc1-n1c(SCC(=O)N2CCCCC2)nnc1-c1ccccc1O`, for which the “hERG current change (%, negative = inhibition) at 10uM” value is -12.1%. Next, `Cc1ccccc1-n1ncc2c1CC(C)(C)CC2NC(=O)CCC(F)(F)F` (centres unmarked): -3.52%; `COCc1ccc(C(=O)N2CCC(CCC(=O)Nc3cccc(C)c3)CC2)s1`: -15.1%.

In the case of `Cc1noc(C)c1C(=O)NC(C)C12CC3CC(CC(C3)C1)C2` (centres unmarked), the “hERG current change (%, negative = inhibition) at 10uM” value stood at 3.87%.

On to `COc1ccc(NC(C)=O)cc1S(=O)(=O)NC1CCSc2ccccc21` (centres unmarked), for which the “hERG current change (%, negative = inhibition) at 10uM” value was -23%. Regarding `COCCNC(=O)CN(c1ccc(C)cc1)S(=O)(=O)c1ccc(SC)cc1`, the “hERG current change (%, negative = inhibition) at 10uM” value is -31.7%. The result for `CNC(=O)NC(=O)COC(=O)c1cccc(S(=O)(=O)N2CC3(C)CC2CC(C)(C)C3)c1` (centres unmarked) reads -14.4%. For `CCOCCCNC(=O)CCc1nnc2ccc(N3CCCCC3)nn12`, the “hERG current change (%, negative = inhibition) at 10uM” value is 11.1%.
